Article PMC4336329 (PLoS ONE, 2015)
About 2,200 (0.71%) of roughly 310,000 compounds showed an effect of 50% or more. The effect is printed as a negative number. This is one part of the list.

target: human ether-à-go-go-related gene (hERG) potassium channel (human, UniProt Q12809); assay: primary screen, population patch clamp on CHO cells stably expressing hERG
Sequence (Q12809 whole entry, looked up): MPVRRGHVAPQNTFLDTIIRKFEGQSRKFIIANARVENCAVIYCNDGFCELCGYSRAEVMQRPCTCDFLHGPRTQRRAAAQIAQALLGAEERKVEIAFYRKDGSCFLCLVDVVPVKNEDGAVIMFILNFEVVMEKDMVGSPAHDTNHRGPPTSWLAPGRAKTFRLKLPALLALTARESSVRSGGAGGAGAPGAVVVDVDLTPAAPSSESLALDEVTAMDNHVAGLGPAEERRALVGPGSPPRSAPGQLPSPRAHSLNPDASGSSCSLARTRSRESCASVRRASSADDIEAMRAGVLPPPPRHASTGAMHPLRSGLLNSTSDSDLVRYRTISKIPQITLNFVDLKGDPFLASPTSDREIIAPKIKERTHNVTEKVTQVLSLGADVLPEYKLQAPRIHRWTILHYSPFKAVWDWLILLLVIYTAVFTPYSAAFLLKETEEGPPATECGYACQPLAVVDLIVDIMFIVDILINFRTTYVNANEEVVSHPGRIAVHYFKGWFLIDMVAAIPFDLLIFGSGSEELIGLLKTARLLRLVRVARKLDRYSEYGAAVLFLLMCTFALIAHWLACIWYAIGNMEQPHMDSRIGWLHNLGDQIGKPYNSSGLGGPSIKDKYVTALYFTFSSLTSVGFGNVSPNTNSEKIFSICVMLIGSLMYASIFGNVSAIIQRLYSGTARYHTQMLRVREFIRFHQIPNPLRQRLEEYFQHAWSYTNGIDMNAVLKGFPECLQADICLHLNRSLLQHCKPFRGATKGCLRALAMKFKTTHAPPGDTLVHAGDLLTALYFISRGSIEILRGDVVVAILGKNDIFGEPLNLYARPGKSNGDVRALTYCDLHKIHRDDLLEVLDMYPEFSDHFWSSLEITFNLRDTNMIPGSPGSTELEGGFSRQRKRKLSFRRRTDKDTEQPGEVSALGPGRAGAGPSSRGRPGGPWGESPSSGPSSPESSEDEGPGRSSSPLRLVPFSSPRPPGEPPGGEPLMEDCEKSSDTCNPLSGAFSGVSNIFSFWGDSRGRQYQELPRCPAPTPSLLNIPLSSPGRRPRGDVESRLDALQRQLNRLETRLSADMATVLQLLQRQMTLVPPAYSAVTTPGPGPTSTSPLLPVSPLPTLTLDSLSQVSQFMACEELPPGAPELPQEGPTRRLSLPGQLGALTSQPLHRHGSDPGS

Structure (SMILES) | hERG current change (%, negative = inhibition) at 1uM [%]
Cc1csc2nc(CNC(=O)CCC(=O)O)cn12 | 15.5
CC(C)(C)OC(=O)N1Cc2ccccc2C[C@H]1C(=O)NCC(=O)Nc1ccc2c(c1)OCCO2 | 8.69
Cc1cccn2c(=O)c3cc(C(=O)NCC4CCCO4)c(=N)n(CCN4CCOCC4)c3nc12 (centres unmarked) | -50.1
COCc1[nH]nc2c1C(c1ccccc1F)C(C#N)=C(N)O2 (centres unmarked) | 11.5
CC(C)C[C@@H](CO)N(Cc1ccccc1)S(=O)(=O)N(Cc1ccccc1)[C@@H](CO)CC(C)C | 9.28
O=C1CCCN1CN(C(=O)c1ccc2c(c1)OCO2)c1cccc(Cl)c1 | 5.22
O=C(CCCC(=O)N(CC(=O)NC1CCCCC1)CC1CCCO1)Nc1ccccn1 (centres unmarked) | -0.417
O=[N+]([O-])c1ccc(/C=N/N2CCCCC2)cc1 | 12.1
O=C(CCC(=O)NC1CCCCCC1)Nc1nnc(C(F)(F)F)s1 | -1.34
Cc1ccsc1C(=O)OCC(=O)Nc1c(C)n(C)n(-c2ccccc2)c1=O | 13.4
CN(C)c1nc(OCCOC(=O)c2ccccc2)nc(N(C)C)n1 | 1.21
COc1ccc(-c2cc(C(=O)N3CCN(c4cccc(C)c4C)CC3)c3ccccc3n2)cc1OC | 6.67
COc1ccc(N2CCN(CCCNC(=O)C3CCCN(S(=O)(=O)c4c(C)n[nH]c4C)C3)CC2)cc1 (centres unmarked) | 7.79
Cc1cc(NC(=O)c2cc3ccccc3o2)ccc1NC(=O)c1ccccc1 | 13.2
O=C(COc1ccc2ccc(=O)oc2c1)NCCCN1CCCC1=O | 12.9
N#Cc1ccc2ccn(CC(=O)NCc3ccccc3)c2c1 | 9.25
CCc1nnc(NC(=O)c2ccc(OC)cc2)s1 | 16.9
O=Cc1cccn1-c1ccc2ccccc2c1 | -0.0861
CC1(C)C(c2ccccc2)=[N+]([O-])C2(CCCCC2=O)N1O (centres unmarked) | 1.25

Structure (SMILES) | hERG current change (%, negative = inhibition) at 1uM [%]
C/C(CC(=O)N1CCN(C=O)CC1)=N\NC(=O)c1ccc([N+](=O)[O-])cc1 | 7.62
CCN(CC)S(=O)(=O)c1ccc(NC(=O)c2cc(-c3ccccc3)nc3ccccc23)cc1 | 5.97
Cc1ccc(-c2nc3c(c(=O)c4ccccc4n3C)c(=O)n2-c2ccccc2)cc1 | 7.73
COc1cc(/C=N/NC(=O)c2ccc(N3CCCC3=O)cc2)ccc1O | 0.359
CC(=O)Nc1cccc(-c2csc(Nc3cccc(C)n3)n2)c1 | 2.44
COc1ccc(CCNC(=O)NC23CC4CC(CC(C4)C2)C3)cc1OC | 4.15
CC1CCc2c(sc(NC(=O)c3cccs3)c2C(=O)O)C1 (centres unmarked) | 22.8
COc1ccccc1NC(=O)COc1ccc(C(=O)OCC(=O)NC(C)(C)C)cc1OC | 10.6
Cc1cc(C(=O)OCC(=O)N(CC(C)C)c2c(N)n(Cc3ccccc3)c(=O)[nH]c2=O)c2ccccc2n1 | 1.51
CNS(=O)(=O)c1cc(Nc2ncnc3sccc23)ccc1C | 11.6
Cc1nn(-c2ccccc2)c(C)c1C(=O)OCc1ccc(C#N)cc1 | 16.5
COc1cccc(NC(=O)c2ccc(NC(=O)C(C)(C)C)cc2)c1 | 14.4
Cc1ccccc1CN(C)C1CCN(C)CC1 | 20.9
COc1ccc(Cl)cc1C(=O)NC(=S)Nc1cc(-c2nc3ccccc3[nH]2)ccc1C | 12.1
C/C(=N\NC(=O)Cc1cccn1C)c1ccc2ccccc2c1 | 11.9
Cc1cc(=O)[nH]c2c1cnn2Cc1ccccc1 | 3.97
COc1cccc(C(=O)NC2CCCN(C3Cc4ccccc4C3)C2)c1OC (centres unmarked) | 0.941
CCCc1ccc(Oc2cn[nH]c2-c2ccc(O)c(C)c2O)cc1 | 13.5
CCn1c(=O)c(=O)[nH]c2cc(C(=O)N3CCN(c4ccccc4F)CC3)ccc21 | 12.7

Structure (SMILES) | hERG current change (%, negative = inhibition) at 1uM [%]
COc1ccc(CCNC(=O)COc2ccc(S(=O)(=O)NC3CCCCC3)cc2Cl)cc1OC | 12.9
CCS(=O)(=O)c1ccc2oc(SCC(=O)c3ccco3)nc2c1 | 1.27
O=C(NC1CCCC1)C(c1ccco1)N(C(=O)c1csnn1)c1ccccc1 (centres unmarked) | 5.46
Cn1c(=O)c2c(nc(NCc3ccc4c(c3)OCO4)n2Cc2ccc(F)cc2)n(C)c1=O | 5.06
O=C(O)c1cn(-c2ccccc2)nc1-c1cccnc1 | -2.62
COc1cc(/C=N/NC(=O)c2cccnc2)ccc1OC(=O)c1ccco1 | 0.304
CC(NC(=O)C1CCN(S(=O)(=O)c2ccccc2)CC1)c1ccccc1 (centres unmarked) | 8.87
COC(=O)c1sc(SC)c(-c2ccon2)c1C | 12.8
Cc1cccc(OCCOC(=O)c2ccc(F)c(S(=O)(=O)N3CCOCC3)c2)c1 | 4.87
O=C(NCCC1=CCCCC1)C(=O)NCC(c1ccco1)N1CCN(c2ccc(F)cc2)CC1 (centres unmarked) | 10.3
Cc1c(Cl)cccc1NC(=S)N1CCCCCC1 | 11.5
Cc1ccc2c(=O)cc(C(=O)NC3CCS(=O)(=O)C3)oc2c1C (centres unmarked) | 14.1
O=C(O)C1CCCCC1C(=O)Nc1cc(C(F)(F)F)ccc1Cl (centres unmarked) | 18.9
c1ccc(CSc2nnc(Cc3ccccc3)o2)cc1 | 20.5
N#Cc1nc(COc2ccccc2F)oc1N1CCCCCC1 | 2.41
Cc1ccc(S(=O)(=O)Cc2ccc(C(=O)NC3CCCC3)o2)cc1 | 13.8
Fc1ccc(NC(=S)Nc2cccc(Cl)c2)cc1 | 4.64
COC(=O)C1=C(c2ccc(S(C)(=O)=O)cc2)C[C@@H]2CC[C@H]1N2C(=O)NCc1ccccc1 | 2.04
